Sequences with one replicate were seen in a single cluster, so their values are uncertain.
system: ATP; assay: switch fluorescence ratio, 500 uM ATP over buffer (Cy3 cluster intensity, sum of 5 cycles each) (fold (ratio)); higher = stronger signal-on switching upon ATP binding; sequences stand for … in TCGTCGGCAGCGTCAGATGTGTATAAGAGACAGTTTTTTTTTTTTTTTTTTTTTTTTT…TC; settings: aptamer strand: ATP DNA aptamer (quencher-CACCTGGGGGAGTATTGCGGAGGAAGG + anchor), 100 nM annealed; ATP concentration: 500 uM; one replicate
Outline: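 For every switch-domain sequence, the fluorescence ratio is the mean of per-cluster values, each being summed target-cycle Cy3 intensity over summed buffer-cycle Cy3 intensity. Clusters outside 100-1000 RFU were excluded. On a modified Illumina MiSeq flow-cell, the Cy3-labelled switching-strand clusters were annealed to 100 nM quencher-labelled ATP aptamer, imaged in selection buffer and then after 15 min with 500 uM ATP at 22 °C. Five such cycles were run, with NaOH stripping and re-annealing between them.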
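Further: ATP exposure 15 min at 22 °C before imaging.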

Sequence	switch fluorescence ratio
ACTGGCAGGA	1.03
ACTGGCGTTG	1.03
ACTGGGCCG	1.15
ACTGGGCTTA	0.98
ACTGGGGCAT	1.11
ACTGGTCCAC	1.09
ACTGTATATA	1.24
ACTGTCGAAC	1.05
ACTGTCTAGT	0.97
ACTGTTCATT	1.05
ACTTAAAATA	1.2
ACTTAACTAG	1.03
ACTTAAGGGG	1.04
ACTTACGACG	1.79
ACTTACTCAC	1.48
ACTTAGAAGC	0.97
ACTTAGTGAA	1.08
ACTTATTCCT	1.02
ACTTCATAGG	1.1
ACTTCCGGTT	1.07
ACTTCCTTTA	1.71
ACTTCGGTGC	1.14
ACTTCGTAAC	1.22
ACTTCTACCT	1.35
ACTTCTGTCA	1.03
ACTTGAGGTG	1.12

Sequence	switch fluorescence ratio
ACTTGATCGG	0.992
ACTTGCACGC	1.28
ACTTGCTTTT	1.03
ACTTGTCGAT	1.01
ACTTGTGGTT	0.95
ACTTTAAGTT	1.04
ACTTTACGT	1.35
ACTTTAGTAT	0.961
ACTTTCACT	1.12
ACTTTCGCTA	1.36
ACTTTCGGGG	1.01
ACTTTCGTAG	1.11
ACTTTCTGC	1.01
ACTTTGTGGA	0.978
ACTTTTTTAC	1.04
AGAAAAGTCA	1.01
AGAAAATAAT	0.997
AGAAACATCT	0.999
AGAAACTATT	1.05
AGAAAGGATA	1.04
AGAAATTCGG	0.998
AGAACAAGTT	0.972
AGAACAGGGG	1.24
AGAACCC	1.03
AGAACCCGGG	0.988
AGAACCTAGA	1

Sequence	switch fluorescence ratio
AGAACCTTTC	3.18
AGAACCTTTT	1.07
AGAACGCAC	1.9
AGAACTCGGA	0.969
AGAACTGGAC	1.13
AGAACTTTAT	1.03
AGAACTTTGT	0.958
AGAAGATCGG	1.02
AGAAGATCTT	1.07
AGAAGATTAG	0.988
AGAAGGTCTG	0.992
AGAAGTGGAC	0.982
AGAAGTGTTC	0.988
AGAAGTTCCA	0.991
AGAAGTTCGT	1.01
AGAATAATGA	1.02
AGAATAGAGC	0.956
AGAATCAGGA	0.978
AGAATCATAG	1
AGAATCCAAT	1.01
AGAATCTTTA	1.05
AGAATGGTAC	1.05
AGAATTAAGT	1.01
AGAATTAGGG	0.976
AGAATTTCTG	0.976
AGACAATATG	0.938

Sequence	switch fluorescence ratio
AGACACAATA	1.2
AGACAGATCT	0.981
AGACAGCTGC	1.18
AGACATA	0.986
AGACCGGAA	1.15
AGACCTGAAT	0.979
AGACCTTGTT	1.02
AGACCTTTAT	1.01
AGACCTTTTT	1.02
AGACGAGCCT	1.14
AGACGGGCGA	0.988
AGACGTAGAC	1.08
AGACGTAGGT	0.953
AGACTAAGCA	1.04
AGACTATCCT	1.05
AGACTATGAC	1.01
AGACTCGGGG	0.981
AGACTTTAC	1.16
AGACTTTATC	1.02
AGAGAAAGAT	0.994
AGAGAATTGA	0.974
AGAGACAAAT	1.02
AGAGATACCT	1.19
